Laboratory results from publication PMC4336329 (PLoS ONE, 2015).
Among all 310,000 compounds or so, about 14,000 (4.5%) showed an effect of 50% or more. Effects have a minus sign here. The list shows a part of the results.

biological target: human ether-à-go-go-related gene (hERG) potassium channel (human, UniProt Q12809); assay: primary screen, population patch clamp on CHO cells stably expressing hERG
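Also: peak tail current of the secondary pulse compared with the same well before compound.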

human ether-à-go-go-related gene (hERG) potassium channel, sequence (Q12809 whole entry, looked up): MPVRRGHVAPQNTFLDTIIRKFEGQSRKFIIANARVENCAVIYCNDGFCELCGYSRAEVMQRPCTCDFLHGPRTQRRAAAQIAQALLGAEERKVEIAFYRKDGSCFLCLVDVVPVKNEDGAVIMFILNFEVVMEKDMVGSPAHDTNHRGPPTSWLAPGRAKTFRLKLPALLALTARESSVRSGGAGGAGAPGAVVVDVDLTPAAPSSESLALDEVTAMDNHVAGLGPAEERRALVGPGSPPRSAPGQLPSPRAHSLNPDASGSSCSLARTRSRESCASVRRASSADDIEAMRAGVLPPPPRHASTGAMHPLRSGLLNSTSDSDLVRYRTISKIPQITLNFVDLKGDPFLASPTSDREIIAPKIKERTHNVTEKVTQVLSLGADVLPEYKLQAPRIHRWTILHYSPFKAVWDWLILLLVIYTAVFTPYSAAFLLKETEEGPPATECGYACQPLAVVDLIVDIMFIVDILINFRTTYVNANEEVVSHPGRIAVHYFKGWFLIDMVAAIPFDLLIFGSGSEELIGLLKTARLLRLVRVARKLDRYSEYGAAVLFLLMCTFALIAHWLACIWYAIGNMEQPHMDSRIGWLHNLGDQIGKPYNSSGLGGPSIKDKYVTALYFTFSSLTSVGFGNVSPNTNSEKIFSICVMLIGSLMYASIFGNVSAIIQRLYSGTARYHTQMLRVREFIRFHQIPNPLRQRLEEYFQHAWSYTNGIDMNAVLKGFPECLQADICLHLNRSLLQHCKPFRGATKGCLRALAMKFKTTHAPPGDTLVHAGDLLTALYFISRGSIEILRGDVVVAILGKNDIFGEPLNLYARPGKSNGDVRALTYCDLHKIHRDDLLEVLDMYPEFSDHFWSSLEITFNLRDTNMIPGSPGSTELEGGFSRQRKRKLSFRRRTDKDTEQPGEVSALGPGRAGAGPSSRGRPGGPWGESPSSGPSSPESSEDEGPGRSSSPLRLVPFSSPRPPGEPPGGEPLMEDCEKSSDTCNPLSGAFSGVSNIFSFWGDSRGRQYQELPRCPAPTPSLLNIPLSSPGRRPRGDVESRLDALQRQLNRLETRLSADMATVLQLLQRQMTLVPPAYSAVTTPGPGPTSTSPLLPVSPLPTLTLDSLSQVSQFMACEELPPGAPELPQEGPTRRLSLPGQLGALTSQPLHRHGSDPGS

SMILES | hERG current change (%, negative = inhibition) at 10uM
COCCN(C(=O)COC(=O)CCc1nc2ccccc2s1)c1c(N)n(Cc2ccccc2)c(=O)[nH]c1=O | 8.28%
COc1cccc([C@@]2(O)CCCC[C@@H]2CN(C)C)c1.Cl | 15.8%
O=C(NCc1ccc(F)cc1)C(C(=O)NCc1ccc(F)cc1)c1ncc(C(F)(F)F)cc1Cl | 1.56%
O=C1NC(c2ccc(Cl)c([N+](=O)[O-])c2)Nc2ccccc21 (stereo not drawn) | 20%
Cc1nn(C)cc1CN(C)Cc1ccc(OCC(O)CN2CCCCC2)cc1 (stereo not drawn) | -7.47%
COc1ccc(Nc2nc3ccc(OC)cc3s2)cc1 | 13.4%
O=C(CCc1n[nH]c(=O)[nH]c1=O)N1CCCCC1 | 9.5%
COc1ccc2oc(=O)c(C(=O)OCc3ccccc3)cc2c1 | 13.4%
CS(=O)(=O)N(CC(=O)NCCSCc1cccc(Cl)c1)c1ccc2c(c1)OCO2 | -15.5%
Cc1ccc(N(CC(=O)NCCSc2ccccn2)S(C)(=O)=O)cc1 | 0.263%
CCc1ccc(C(c2c(C)nn(-c3ccccc3)c2N)c2c(C)nn(-c3ccccc3)c2N)cc1 | -41.2%
CNS(=O)(=O)c1cccc(C(=O)OCC(=O)NC2CCCC2)c1 | 20.7%
Brc1ccc(NCc2cccc3ccccc23)nc1 | 9.86%
CC1CC(Nc2ccccc2)c2ccccc2N1C(=O)c1ccccc1F (stereo not drawn) | 18.8%
Cc1cc(OCC(=O)Nc2ncn[nH]2)ccc1Cl | 3.94%
O=S(=O)(NCc1ccccc1)c1ccc(Br)c2nsnc12 | -14.1%
COc1ccc2c(C)cc(SCC(=O)Nc3ccc(Cl)cn3)nc2c1 | 4.24%
O=C(O)c1ccccc1C(=O)Nc1ccc(-n2nc(C(F)(F)F)cc2C(F)(F)F)cc1 | 12.8%
O=C(CNCc1ccc(F)cc1)Nc1ccc(S(=O)(=O)N2CCOCC2)cc1 | -14.8%
C/C(=C\COc1ccc2ccc(=O)oc2c1)CC[C@@H](O)C(C)(C)O | 21.8%
Cc1cc(C)n(S(=O)(=O)c2ccccc2)n1 | 9.53%
CCOc1ccc(C2Oc3nc(SC)nnc3-c3ccccc3N2C(C)=O)cc1OC (stereo not drawn) | 9.64%
C=CCn1c(=O)c2ccccc2n2c(SCc3cc(=O)n4ccsc4n3)nnc12 | -3.96%
O=C(Nc1ccccc1)N(Cc1ccc2c(c1)OCO2)Cc1nc2ccccc2c(=O)[nH]1 | -16.3%
